Among the test systems are MKN45; PANC1; SUM159; T84.
What all share (test): ALDHbr (CSC) cell proportion score relative to DMSO vehicle (ratio to DMSO); breast (SUM159) / gastric (MKN45) / pancreatic (PANC1) / colon cancer lines; ALDHbr cells have high ALDH activity and are rich in cancer stem cells (CSC); higher = more CSC (ALDHbr) cells remaining
Details in all cases: 10 µM; 72 h

Where a name gives a salt, the structure may show the parent alone. The list shows a part of the results. The data scatter; read single values as rough.
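Also: High-content imaging of ALDEFLUOR-stained cells with Hoechst-labelled nuclei in 384-well plates, triplicate wells, scored as Z-score against 0.1% DMSO vehicle, negative meaning fewer ALDHbr cells.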

For the compound `Cc1cccc(C)c1NC(=O)C1CCCCN1C` (configuration not stated) [Mepivacaine hydrochloride], the ALDHbr in the assay on MKN45 stood at 1.45; with PANC1 it was 0.982; in the assay with SUM159 it was 1.09; in the assay with T84, 1.

As for `COc1cc2c(cc1OC)C(=O)C(CC1CCN(Cc3ccccc3)CC1)C2` (configuration not stated) [Donepezil hydrochloride], the ALDHbr worked out at 1.18 in the assay with MKN45, 0.721 with PANC1, 0.86 in the assay with SUM159 and 0.709 in the assay with T84.

Take `CC(CN(C)C)CN1c2ccccc2Sc2ccccc21` (configuration not stated) [Trimeprazine tartrate]: the ALDHbr with MKN45 was determined as 0.823; with PANC1, 1.36; in the assay with SUM159, 0.745; in the assay on T84, 1.1.

Take `CCN1CCN(C(=O)N[C@@H](C(=O)N[C@@H]2C(=O)N3[C@@H]2SC(C)(C)[C@@H]3C(=O)O)c2ccccc2)C(=O)C1=O` [Piperacillin sodium salt]: the ALDHbr with MKN45 worked out at 0.968; with PANC1 it was 0.877; in the assay on SUM159, 1.23; in the assay with T84, 0.906.

With `CC1CNc2c(cccc2S(=O)(=O)N[C@@H](CCCNC(=N)N)C(=O)N2CC[C@@H](C)C[C@@H]2C(=O)O)C1` (some centres not stated) [Argatroban], the ALDHbr with MKN45 came to 1.06; in the assay on PANC1, 0.874; in the assay with SUM159 it was 0.804; in the assay on T84, 1.04.

`CC(N)CCCC(C)(C)O` (configuration not stated) [Heptaminol hydrochloride]: the ALDHbr worked out at 0.935 in the assay on MKN45, 0.889 in the assay on PANC1, 0.962 in the assay with SUM159 and 0.976 in the assay on T84.

`C=CCN1CCCC1CNC(=O)c1cc2nn[nH]c2cc1OC` (configuration not stated) [Alizapride hydrochloride]: the ALDHbr in the assay on MKN45 came to 1.1; in the assay on PANC1, 1.02; in the assay on SUM159, 1.08; in the assay with T84, 1.03.

As to `CCOc1nc2cccc(C(=O)OCc3oc(=O)oc3C)c2n1Cc1ccc(-c2ccccc2-c2noc(=O)[nH]2)cc1` [Azilsartan kamedoxomil], the ALDHbr with MKN45 is 0.949; in the assay with PANC1 it was 0.887; in the assay with SUM159, 1.09; with T84 it was 0.941.

With `O=c1oc2ccccc2c(O)c1Cc1c(O)c2ccccc2oc1=O` [Dicumarol], the ALDHbr stood at 0.971 in the assay with MKN45, 0.894 with PANC1, 1.07 in the assay on SUM159 and 1.15 in the assay on T84.

Take `CN1CCN(CC(=O)N2c3ccccc3C(=O)Nc3cccnc32)CC1` [Pirenzepine dihydrochloride]: the ALDHbr worked out at 0.791 with MKN45, 0.993 with PANC1, 0.862 in the assay with SUM159 and 1.09 in the assay with T84.

`Nc1c(Br)cc(Br)cc1CN[C@H]1CC[C@H](O)CC1` [Ambroxol hydrochloride]: the ALDHbr with MKN45 worked out at 1.02; with PANC1, 0.844; with SUM159 it was 1.18; in the assay on T84 it was 1.07.

Consider `COc1cc(NS(=O)(=O)c2ccc(N)cc2)nc(OC)n1` [Sulfadimethoxine], for which the ALDHbr in the assay on MKN45 amounted to 1.03; in the assay with PANC1 it was 0.941; with SUM159, 1; in the assay on T84 it was 1.09.

For `CCN1CC(CCN2CCOCC2)C(c2ccccc2)(c2ccccc2)C1=O` (configuration not stated) [Doxapram hydrochloride], the ALDHbr with MKN45 stood at 0.993; in the assay with PANC1, 0.925; in the assay with SUM159, 0.785; with T84 it was 0.901.

For the compound `O=C1CCC(N2C(=O)c3ccccc3C2=O)C(=O)N1` (configuration not stated) [Thalidomide], the ALDHbr in the assay with MKN45 is 0.95; with PANC1, 0.965; in the assay on SUM159, 1.1; in the assay with T84, 0.985.

Take `CN1CCN(C(c2ccccc2)c2ccccc2)CC1` [Cyclizine hydrochloride]: the ALDHbr was 1.07 in the assay on MKN45, 0.971 with PANC1, 0.844 with SUM159 and 0.96 in the assay with T84.

For the compound `Cc1cc(C)nc(NS(=O)(=O)c2ccc(N)cc2)n1` [Sulfamethazine sodium salt], the ALDHbr in the assay on MKN45 was found to be 0.994; in the assay on PANC1 it was 0.952; in the assay on SUM159, 1.37; in the assay with T84, 0.727.

Consider `OC(CCCN1CCCCC1)(c1ccccc1)c1ccccc1` [Diphenidol hydrochloride], for which the ALDHbr in the assay with MKN45 stood at 1; in the assay on PANC1, 0.872; in the assay with SUM159, 0.849; in the assay with T84, 1.06.

In the case of `C[C@]12CCC(=O)C=C1CC[C@@H]1[C@@H]2[C@@H](O)C[C@@]2(C)[C@H]1CC[C@]2(O)C(=O)CO` [Hydrocortisone base], the ALDHbr in the assay with MKN45 came to 1.05; in the assay on PANC1, 0.756; in the assay on SUM159, 1.25; in the assay on T84 it was 1.02.

As for `CC1=C(CC(=O)O)c2cc(F)ccc2/C1=C\c1ccc([S+](C)[O-])cc1` (configuration not stated) [Sulindac], the ALDHbr in the assay with MKN45 came to 1.36; with PANC1, 1.16; in the assay on SUM159, 1.01; with T84 it was 1.1.

`C[N+](C)(C)CCOC(N)=O` [Carbachol]: the ALDHbr in the assay with MKN45 is 1.05; in the assay with PANC1 it was 0.803; in the assay on SUM159, 0.879; in the assay with T84, 0.921.

Turning to `O=C(O)Cc1cc(I)c(Oc2ccc(O)c(I)c2)c(I)c1` [Tiratricol, 3,3',5-triiodothyroacetic acid], the ALDHbr with MKN45 was 1.05; with PANC1, 1.02; in the assay on SUM159, 1.02; in the assay with T84, 0.853.

Consider `O=C1c2cccc(O)c2C(=O)c2c(O)cccc21` [1,8-Dihydroxyanthraquinone], for which the ALDHbr is 0.385 with MKN45, 0.817 in the assay on PANC1, 3.25 in the assay with SUM159 and 0.391 in the assay with T84.

Regarding `N=C(N=C(N)N)N1CCOCC1` [Moroxidine hydrochloride], the ALDHbr in the assay on MKN45 stood at 1.06; with PANC1, 0.934; with SUM159 it was 0.916; in the assay with T84 it was 0.98.

`OCCN1CCN(CC/C=C2/c3ccccc3Sc3ccc(Cl)cc32)CC1` [Zuclopenthixol dihydrochloride]: the ALDHbr was 0.739 in the assay on MKN45, 0.879 in the assay with PANC1, 0.411 in the assay on SUM159 and 0.112 in the assay on T84.

Take `O=C(O)/C=C/c1ccc(Cn2ccnc2)cc1` [Ozagrel hydrochloride]: the ALDHbr in the assay on MKN45 amounted to 1.14; in the assay on PANC1, 0.976; in the assay on SUM159, 1.01; in the assay on T84, 0.949.

Regarding `O=C(O)CCc1nc(-c2ccccc2)c(-c2ccccc2)o1` [Oxaprozin], the ALDHbr turned out to be 0.982 in the assay on MKN45, 1.03 in the assay on PANC1, 0.957 with SUM159 and 0.991 with T84.

Turning to `CO[C@@]1(NC(=O)C(C(=O)O)c2ccc(O)cc2)C(=O)N2C(C(=O)O)=C(CSc3nnnn3C)CO[C@@H]21` (some centres not stated) [Moxalactam disodium salt], the ALDHbr in the assay on MKN45 was 0.993; with PANC1, 0.844; in the assay on SUM159 it was 0.653; in the assay on T84, 0.934.

Regarding `CC[N+](CC)(CC(=O)Nc1c(C)cccc1C)Cc1ccccc1` [Denatonium benzoate], the ALDHbr in the assay with MKN45 was found to be 1.26; in the assay with PANC1, 0.893; in the assay with SUM159 it was 0.647; with T84 it was 1.08.

(Values after the supplement of paper PMC11880418.)
